Data taken from PubChem BioAssay AID485344 (National Center for Advancing Translational Sciences (NCATS), 2010).
The campaign covered roughly 340,000 compounds. About 6,900 (2%) were called active. Rule as the data show it: active = inhibition above about 30%; inactive = below that, where a call was filed. The list shows a part of the results, in another mix than the full data. Entries without a call were filed so in the source.

Biological target: D(2) dopamine receptor (Homo sapiens) (UniProt P14416)
Assay: HTS Assay for Allosteric Antagonists of the Human D2 Dopamine Receptor: Primary Screen for Antagonists; also: 0% is about no effect
Details: HEK293 TREx D2 cells, calcium flux, dopamine EC80; at 10 µM; stronger effect = higher value
Outline: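 Tetracycline-induced HEK293 T-REx cells expressing D2 force-coupled to calcium signalling were dye-loaded, exposed to compound for 180 s, then challenged with an EC80 of dopamine; calcium flux was followed kinetically for a further 180 s.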

Chain of UniProt P14416 (P14416 whole entry, looked up): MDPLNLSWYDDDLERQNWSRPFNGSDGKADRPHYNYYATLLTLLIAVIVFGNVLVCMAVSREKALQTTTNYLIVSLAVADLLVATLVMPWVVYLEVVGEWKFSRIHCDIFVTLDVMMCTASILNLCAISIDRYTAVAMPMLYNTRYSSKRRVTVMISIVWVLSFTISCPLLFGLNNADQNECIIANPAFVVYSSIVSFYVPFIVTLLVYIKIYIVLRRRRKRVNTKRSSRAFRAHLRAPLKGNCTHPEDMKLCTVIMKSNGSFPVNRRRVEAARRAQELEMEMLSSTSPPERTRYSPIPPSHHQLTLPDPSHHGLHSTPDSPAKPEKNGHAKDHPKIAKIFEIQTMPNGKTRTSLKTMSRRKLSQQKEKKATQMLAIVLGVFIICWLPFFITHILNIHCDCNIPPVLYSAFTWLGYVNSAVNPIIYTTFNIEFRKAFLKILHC

SMILES	inhibition
COCCCNC(=O)CN1C(=O)CSc2ccc(S(=O)(=O)N3CCOCC3)cc21	-9.79%
Cc1cccn2c(=O)nc(SCC(=O)N3CCCCCC3)nc12	active: 31.1%
CCCS(=O)(=O)N1CC(=O)N(c2ccc(Cl)cc2)C(C)(C(=O)NC2CCCC2)C1 (configuration not stated)	-0.291%
CCn1cc2nc(SCc3ccc(F)cc3)n(Cc3ccc(Cl)cc3)c(=O)c2n1	16.3%
CC(=O)Nc1ccc(Nc2nnc(-c3ccc(C)c(S(N)(=O)=O)c3)c3ccccc23)cc1	14.1%
O=C(C1CCN(S(=O)(=O)Cc2ccccc2)CC1)N1CCN(c2cccc(Cl)c2)CC1	13%
CC(C)CCNC(=O)Nc1cc(C(=O)NCc2cccc(F)c2)ccc1N1CCCC1	-18.8%
COc1ccc2c(c1)c1c(c(=O)n(Cc3ccccc3)c(=O)n1CC(=O)Nc1ccc(C)cc1C)n2C	13.4%
COc1ccc2c(c1)CC(C(=O)NCCN1CCN(c3cccc(C)c3C)CC1)CO2 (configuration not stated)	12.3%
O=C(Nc1nnc(S(=O)(=O)N2CCCCCC2)s1)c1ccccc1Br	17.7%
CCOc1ccc(NC(=O)/C(C#N)=C/c2ccc(N3CCCC3)c(C)c2)cc1	active: 38.4%
CCOC(=O)c1ccc(CN(Cc2ccc(C)cc2)S(=O)(=O)c2ccc(NC(C)=O)cc2)cc1	-19.1%
CSc1cccc(NC(=O)C2CCN(S(=O)(=O)c3ccc4[nH]c5c(c4c3)CCCCC5)CC2)c1	6.18%
N#Cc1ccc(Sc2ccccn2)c([N+](=O)[O-])c1	active: 37.7%
CCOc1cccc(NC(=O)c2ccc(F)c(S(=O)(=O)N(CC)c3cccc(C)c3)c2)c1	23.8%
Cc1c(Cl)cccc1NC(=O)CSc1nc(=O)n(Cc2cccnc2)c2c1CCC2	17%
CC1CC(C)CN(CCCNC(=O)C2CCCN(c3ncnc4c3nc3n4CCCCC3)C2)C1 (configuration not stated)	active: 33.7%
Cc1c(Cl)cccc1-n1ncc(C(=O)Nc2ccc(F)cc2F)c1C1CCN(C(=O)OC(C)(C)C)CC1	-1.1%
O=C1CC(c2nc(-c3ccccc3)no2)CN1c1ccc2c(c1)OCCO2 (configuration not stated)	5.54%
Cc1cc(Cl)ccc1NS(=O)(=O)c1ccc2c(c1)CC(C)N2C(=O)C1CCC1 (configuration not stated)	-7.98%
Cc1ccc(-c2c3c(=O)n(C)c(=O)n(C)c3cn2-c2cc(C)ccc2O)cc1	0.035%
COc1cccc(NC(=O)Cn2c(=O)n(CC(=O)NCCc3ccccc3)c(=O)c3sccc32)c1	-4.19%
COCCN1Cc2cccc(C(=O)Nc3ccc(Cl)cc3Cl)c2C1=O	1.2%
CCN(CC)c1ccc(NC(=O)CN2C(=O)c3cccnc3Sc3ccccc32)c(C)c1	-1.5%

SMILES	inhibition
CC(=O)N1CCc2c(sc3c2c(=O)n(CCc2ccccc2)c(=O)n3Cc2cccc(C)c2)C1	1.49%
COc1ccc2oc(-c3ccc(C)c(NC(=O)CSc4ccc(Cl)cc4)c3)nc2c1	-7.27%
CC(=O)N1c2ccc(S(=O)(=O)N3CCN(c4cccc(Cl)c4)CC3)cc2CC1C (configuration not stated)	-2.56%
CCOc1cc(C2C(C(=O)OC)=C(C)NC3=C2C(=O)c2ccccc23)c(Br)cc1O (configuration not stated)	-9.51%
O=C(Cn1c(=O)c2cccn2c2ccc(F)cc21)N1CCN(c2ccccc2)CC1	11.4%
CCc1ccc(NC(=O)Cn2c(=O)n(CC3CCCO3)c(=O)c3cc(OC)c(OC)cc32)cc1 (configuration not stated)	10.8%
COc1cccc(-n2c(=O)c3c(C)c(C(=O)N(C)C)sc3n(CC(=O)NCC3CCCO3)c2=O)c1 (configuration not stated)	active: 41.1%
Cc1ccc(-c2cc(C(F)(F)F)c(C#N)c(SCC(=O)O)n2)cc1	6.17%
Cc1ccccc1CNC(=O)C(=O)NCC(c1cccs1)S(=O)(=O)c1ccc(Cl)cc1 (configuration not stated)	-17.4%
Cc1cccc(N2CCN(Cc3nnc(-c4ccc5c(c4)OCO5)o3)CC2)c1C	-16%
N#Cc1cccc(Oc2ccc(S(=O)(=O)N3CCCC3)cn2)c1	active: 35.2%
CCc1nn2c(=O)cc(COc3ccc(/C=C(\C#N)C(=O)Nc4ccc(C)cc4)cc3)nc2s1	7.46%
Cc1ccc(CSc2ncc(Cl)c(C(=O)Nc3sc4c(c3C(N)=O)CCCC4)n2)cc1	7.31%
CCCCNC(=O)CSc1cc(=O)n(C)c2ccccc12	active: 35.4%
O=C(Cn1cnc2nc3c(cc2c1=O)CCCC3)N1CCN(c2ccccc2)CC1	9.93%
Cc1cc(C)cc(NC(=O)Cn2c3ncccc3c(=O)n2-c2ccc(C)c(C)c2)c1	-0.833%
O=C(NCc1ccccc1)c1ccc2c(c1)nc1n2CCCCC1	-3.03%
CC(C)CCn1c(O)c(N=NC(=O)c2ccco2)c2ccccc21	active: 31.3%
O=C(NCC(c1ccccc1)c1ccccc1)c1nn(-c2ccccc2F)nc1CO	9.91%
Oc1c(CN2CCN(c3ccccn3)CC2)cc(Cl)c2cccnc12	active: 89.2%
Cc1ccc(CCNC(=O)CCSCc2ccccc2Cl)cc1	5.72%
CCCn1c2ccccc2c2cnn(CC(=O)NC(CCSC)C(=O)OC)c(=O)c21 (configuration not stated)	8.7%
Cc1c(C(=O)NCCN(C)C)sc2nc3n(c(=O)c12)CCC3	-17.6%
